# Results: the supplement of paper PMC5499739
# Over roughly 16,000 sequences, “Z-score” has its median near -0.37; the highest 2% begin near 3.2. This is one part of the list.
# Tested on: RBM10 RRM1-ZnF (GST-tagged construct)
# Test: RNAcompete 7-mer binding Z-score; higher = stronger binding preference
# Outline: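 GST-tagged RBM10 constructs (20 pmol) were mixed with a designed pool of 241 399 RNAs up to 41 nt (1.5 nmol), transcribed from microarray-derived DNA templates. Mixing was in 1 ml Hepes pH 7.8 buffer with KCl, NaCl, glycerol, DTT, BSA and glutathione Sepharose beads. Binding ran 30 min at 4°C, followed by four 2-min washes at 4°C, and bound RNA was identified by microarray hybridisation. Each heptamer motif received a one-sided Z-score for enrichment across probes containing it.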
row,Sequence,RNAcompete 7-mer binding Z-score
1,AGGCACC,-0.334
2,UACACAG,-0.438
3,CCGAGCA,-0.539
4,UAAGCAG,0.352
5,UUAACAG,-0.152
6,AAGGCGU,0.985
7,UUGUCAG,-0.285
8,AACAGUU,-0.503
9,ACUUACU,-0.733
10,UUCAGGU,0.261
11,CAAUUCU,-0.763
12,AAAUCUC,-0.795
13,CUCAACU,-0.798
14,GACAUUG,0.196
15,UUAGCUG,-0.509
16,ACGUUGC,-0.47
17,CCCUUAC,-0.876
18,CAUGUUC,-0.698
19,ACCCAGG,-0.113
20,AAGAUCU,-0.652
21,GGUUAGC,1.12
22,AGGGUAG,3.72
23,CUUAGCA,-0.659
24,ACACAGA,-0.116

row,Sequence,RNAcompete 7-mer binding Z-score
1,UAUCGUU,-0.694
2,UCGUUAC,-0.571
3,AAUAGAG,0.521
4,GUCCCUC,-0.574
5,UACUUUG,-0.886
6,GACUUGA,-0.496
7,GCACAUU,-0.431
8,UUCAUAU,-0.581
9,AGCCUAC,-0.854
10,CGCGCUC,-0.441
11,GAGAGUU,0.179
12,GGCGACU,0.108
13,CAGAUCC,-0.711
14,GUAUAAA,0.0235
15,AGGGCAG,2.11
16,UCUCGCG,-0.655
17,UGAUAAA,-0.00896
18,CGGAGUA,1.06
19,ACCCACG,-0.532
20,GGACUCA,0.0463
21,CUCACUC,-0.701
22,GCGCGCC,-0.175
23,GCGAGCG,3.09
24,CCAAGUA,-0.399

row,Sequence,RNAcompete 7-mer binding Z-score
1,GCCCUCC,-0.552
2,UUUGCUG,-0.47
3,GGCCCGG,0.0463
4,UAGUCGA,-0.191
5,AACGUGG,1.55
6,GCUAGUU,-0.357
7,GAACGUU,-0.363
8,AAUAGCA,-0.142
9,UAAUACU,-0.62
10,UAAAACA,-0.418
11,UGUCCGU,-0.532
12,UAGGUUC,0.069
13,GUCUUCU,-0.724
14,CACUCAG,-0.363
15,CUUCCAC,-0.74
16,ACUGAGG,0.966
17,UGUUGAA,0.209
18,UCUUCAA,-0.623
19,CUCAUAG,-0.766
20,GCAUACC,-0.428
21,UCUAAGU,-0.539
22,CAAAAUG,-0.292
23,CGAAUCC,-0.636
24,CCCCUUG,-0.578

row,Sequence,RNAcompete 7-mer binding Z-score
1,AAGCGCU,-0.366
2,AAACCAC,-0.519
3,GUGGAUU,1.9
4,UCAACCC,-0.701
5,CCGAAAU,-0.688
6,AACCAUA,-0.714
7,UAAAGAU,-0.126
8,UACCUUG,-0.74
9,UCAAACA,-0.707
10,CUUGUCU,-0.873
11,UAUUCGA,-0.5
12,GCGGGUU,2.76
13,CCACUUC,-0.743
14,GCCGCUC,-0.649
15,ACCUUUA,-0.919
16,GACGAAU,-0.0382
17,UCAGGUA,0.628
18,GUCACCU,-0.48
19,CGUACUG,-0.493
20,UACACCC,-0.698
21,AAUCGCC,-0.88
22,CGUUCAU,-0.724
23,ACCUUUG,-0.88
24,ACUACAG,-0.47

row,Sequence,RNAcompete 7-mer binding Z-score
1,CAGUCUA,-0.454
2,UAGAGCU,-0.272
3,AAAACGG,1.4
4,AUAGUCU,-0.623
5,GUAACAU,-0.00896
6,AUCUGGG,0.443
7,UACGGAA,0.699
8,CCAUCCA,-0.717
9,GUGCGCC,0.0593
10,AGUCAGG,1.09
11,UAUCGAU,-0.513
12,UGAUGCU,-0.275
13,UCCAUAG,-0.73
14,GUUUUUA,-0.363
15,CCGGCGU,-0.353
16,AUAGUUC,-0.724
17,UCUUAGC,-0.737
18,UGUGCCC,-0.548
19,CCUAAUA,-0.763
20,UCCGUUA,-0.776
21,UGGCAGA,0.92
22,AAUAUAA,-0.197
23,GGGAGCG,3.35
24,GGUCUCU,-0.405

row,Sequence,RNAcompete 7-mer binding Z-score
1,GCCUAUA,-0.623
2,CGAUCGG,0.128
3,CUCUUGG,-0.259
4,ACAUCAA,-0.519
5,AACUCUA,-0.854
6,CACAUGC,-0.584
7,ACCCCGU,-0.386
8,GUCGGAG,1.13
9,GAGUCUA,-0.165
10,GGUUUCA,0.277
11,GAUCGAA,-0.0479
12,GAAUUUC,-0.607
13,CCCGCCA,-0.34
14,UCAGUGA,0.209
15,UAAUCCA,-0.73
16,ACUGCGA,-0.36
17,AAAACUG,-0.0187
18,AGUCUUC,-0.652
19,GCUCGCC,-0.467
20,CGACAGU,-0.418
21,CCGCGAA,-0.561
22,GCGCUCA,-0.477
23,UAUUCCG,-0.698
24,GCGUUAA,-0.188

row,Sequence,RNAcompete 7-mer binding Z-score
1,UUAUAGC,-0.513
2,GUGGGAG,4.08
3,UGGAUAU,1.17
4,GUGAGGA,2.69
5,UUGUAUA,-0.526
6,CAGACAA,-0.415
7,GUGUGAA,0.975
8,CGAAAGC,-0.487
9,ACAUCGU,-0.526
10,UCCGUCA,-0.746
11,GGCGCCG,-0.0122
12,GAAUACG,0.55
13,UAAAAAU,-0.461
14,GGUAACG,1.84
15,AUCAACG,-0.483
16,GAGACGU,0.228
17,UUCAGAG,-0.532
18,GCGAGAU,0.446
19,UGCCUGA,-0.539
20,ACUCUGU,-0.847
21,GUGUCGG,1.03
22,GAAGUGC,0.29
23,CCGCUCU,-0.782
24,CCUAGAA,-0.688

row,Sequence,RNAcompete 7-mer binding Z-score
1,CUCUGGC,-0.451
2,CAUAGGA,0.54
3,CAUAUUA,-0.642
4,GGAGAUU,0.914
5,GAGGCAU,0.582
6,ACGAGUA,0.153
7,UGAGGAG,1.86
8,GUCUCAA,-0.425
9,CCAGAGC,-0.383
10,UAGUCAA,-0.383
11,GUUAUCC,-0.61
12,GGAAAUA,1.1
13,UUUCCCC,-0.659
14,GUAUUAG,0.566
15,AGUAUUC,-0.493
16,AUUCAGA,-0.402
17,UCAUUCG,-0.75
18,UUACGUG,-0.178
19,AGGGCAU,1.33
20,UGGAGGG,4.07
21,ACUGUGA,-0.24
22,UUUUAUU,-0.678
23,UUGUGUU,-0.285
24,GGAUAAC,1.02

row,Sequence,RNAcompete 7-mer binding Z-score
1,AAAUGGU,2.86
2,GCUUGAA,-0.36
3,GUGACAU,-0.0869
4,AAAAGUC,-0.376
5,GAAGACU,-0.0187
6,UCGUCCU,-0.688
7,UACCUGG,-0.487
8,UUCCCAG,-0.415
9,ACAAAAC,-0.454
10,UUCUGUG,-0.415
11,CCCAGUG,-0.295
12,UCGCUCG,-0.49
13,UAGAGGA,1.69
14,AUCGUUA,-0.487
15,CGCAACA,-0.597
16,UUUGAAC,-0.636
17,UUCAUCG,-0.681
18,ACCUGAC,-0.779
19,CUUUUGU,-0.824
20,GGCGUCA,0.29
21,AUCUCGG,-0.493
22,GCUGUCU,-0.772
23,UGGCCAU,-0.324
24,CUUUGCU,-0.899

row,Sequence,RNAcompete 7-mer binding Z-score
1,CCAGGUC,-0.402
2,AUCAACA,-0.522
3,GGGUAUA,2.67
4,UCAAAAU,-0.591
5,GUGACGU,0.417
6,CGCAACG,-0.324
7,GCUUCCC,-0.665
8,UGAAGCA,0.105
9,AGUACAC,-0.412
10,UUACUCC,-0.772
11,AACAGUC,-0.6
12,AAACUCU,-0.841
13,UCAUAUC,-0.678
14,CGAAAGG,2.19
15,AAUCCCG,-0.821
16,UAUGAAA,-0.357
17,GACUCAA,-0.594
18,AGGUGGG,3.76
